Values marked as one replicate rest on one cluster of the flow cell; about a third of the high ones do not repeat.
Tested on: ATP
Assay: switch fluorescence ratio, 500 uM ATP over buffer (Cy3 cluster intensity, sum of 5 cycles each) (fold (ratio)); higher = stronger signal-on switching upon ATP binding; sequences stand for … in TCGTCGGCAGCGTCAGATGTGTATAAGAGACAGTTTTTTTTTTTTTTTTTTTTTTTTT…TC
Conditions: aptamer strand: ATP DNA aptamer (quencher-CACCTGGGGGAGTATTGCGGAGGAAGG + anchor), 100 nM annealed; ATP concentration: 500 uM; one replicate
How it was run: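 For every switch-domain sequence, the fluorescence ratio is the mean of per-cluster values, each being summed target-cycle Cy3 intensity over summed buffer-cycle Cy3 intensity. Clusters outside 100-1000 RFU were excluded. On a modified Illumina MiSeq flow-cell, the Cy3-labelled switching-strand clusters were annealed to 100 nM quencher-labelled ATP aptamer, imaged in selection buffer and then after 15 min with 500 uM ATP at 22 °C. Five such cycles were run, with NaOH stripping and re-annealing between them.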
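Further: ATP exposure 15 min at 22 °C before imaging.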

| Sequence | switch fluorescence ratio |
| --- | --- |
| CATTGAGGGG | 1.01 |
| GTGTGTACC | 1 |
| CACCTTCTTT | 1.03 |
| GGACTTAACC | 1.08 |
| TTTACATACT | 1.5 |
| GGAACTTGGA | 0.982 |
| TAGGGCAGGC | 0.599 |
| TCAGGGCAGG | 1.12 |
| CCAAGGATAT | 1.09 |
| TCGGGCTGG | 0.965 |
| GCTTATTCCG | 1.09 |
| ACTCGGTGGT | 1.02 |
| TGGACGAGCA | 1.07 |
| GATGATGTTA | 0.934 |
| CTAACAGCAA | 4.55 |
| TATGCGGCGG | 1.02 |
| GTCTGTGACA | 1.02 |
| GCGATTTCCT | 1.1 |
| TTGCTAACTG | 0.999 |
| CTGTAGTGAA | 1.21 |
| CTATGCTGAA | 0.947 |
| CAGCGGCCCC | 1.1 |
| AAATTTATGA | 0.964 |
| CGGGCCCGGT | 1.05 |
| GGTGTTTTCT | 1.01 |
| CAGTCTGTTG | 0.977 |

| Sequence | switch fluorescence ratio |
| --- | --- |
| ACGCCAACCA | 1.31 |
| AGCGGGGCAA | 1.07 |
| CAAAGGTTGT | 1.01 |
| CATGGCAAAC | 3.02 |
| CCACTATAAT | 1.18 |
| TTCCCAGCGC | 1.16 |
| GTTTTCCGCT | 1.08 |
| ACCTGAATTG | 1.05 |
| TGTAGCTCTT | 0.956 |
| GGTTGGAGAA | 0.965 |
| GTTTCGGA | 0.996 |
| TCATGATT | 0.991 |
| TTTCGGTGGG | 1.05 |
| GGCGCAGCT | 1.03 |
| GACACTCA | 1.05 |
| GGGCAACTCG | 1.01 |
| GGTACACGGC | 1.03 |
| AGAACGAAGA | 1.02 |
| TCCCTTGCCA | 1.05 |
| ACCTTGCTTG | 1.07 |
| TCTCGGGGAA | 1.22 |
| CCTTTAAGGT | 1.01 |
| CAGAAGGAGG | 1.01 |
| GGGTATAGCG | 0.925 |
| CTGCCCGGGA | 1.03 |
| ATTAATAGAC | 1 |

| Sequence | switch fluorescence ratio |
| --- | --- |
| CTGGTGTG | 0.97 |
| TTTGCGACTC | 1.22 |
| CAGATAGCGT | 1.01 |
| TGGCGCCTTA | 0.988 |
| CCCAAATCAT | 1.02 |
| TTGGAGATCC | 0.989 |
| TTCTGCGCAG | 1.04 |
| GACGGGGCAC | 1.12 |
| AACATTTGCT | 1.04 |
| AGTATCGTTG | 0.968 |
| CGATTGTGTG | 0.971 |
| AGCTAAAAGG | 0.981 |
| GCATCGTCTG | 1.01 |
| GATATCACTA | 1.01 |
| TACTGGAACG | 1.1 |
| GAGGCACCGA | 0.998 |
| AGCATGGCCG | 1.06 |
| TATGCCGATA | 0.988 |
| ATAACTGGAC | 1.04 |
| AACTATTACA | 1.09 |
| GCCCAGAGGT | 2.19 |
| TGGGGCCACG | 1.02 |
| AGCTGGGAGT | 1.04 |
| TCGAAGATAA | 1.05 |
| TATTCGAGTT | 0.98 |
| ATGCGGATTA | 0.994 |

| Sequence | switch fluorescence ratio |
| --- | --- |
| CGGGAATGGA | 1 |
| TAGCCATCCC | 1.06 |
| TCTTGGGGTT | 0.961 |
| TACAACGCAC | 2.24 |
| CACAAGAA | 1.04 |
| AAGCTTACCG | 1.16 |
| GCGACGGGTA | 1.12 |
| CTGGATCTAG | 1 |
| ATGGCAGGGA | 0.993 |
| GAGGCGAATC | 1.29 |
| CAGTATCAGG | 0.952 |
| AAGTTCACAT | 1.02 |
| GGGTAGGCCC | 1.01 |
| CTTGCCGAGC | 1.05 |
| AGTCGTGTGG | 1.07 |
| TTGAATCCG | 1.02 |
| AGCTTGGTGT | 0.983 |
| GCCAGTGGAC | 1.02 |
| ACATAACAC | 1.15 |
| TTGGTTGCGA | 1.07 |
| AGAGCTACGA | 0.977 |
| GCATCGAGTC | 0.971 |
| CGAGGGGATC | 1.05 |
| GGAATTGAAC | 1.01 |
| TTATGTGTAA | 1 |
| AACTACCCTC | 1.05 |

| Sequence | switch fluorescence ratio |
| --- | --- |
| GGAACTGTGG | 0.971 |
| ACTGTGGCGC | 1.02 |
| GTGGCTTACC | 0.96 |
| ATGGCGCCTC | 1.02 |
| TTTTATGTCC | 1.09 |
| ATAATAATCT | 1.01 |
| ATTCGTAAAA | 1.05 |
| AGATTACCGT | 1 |
| GCGGCAGACT | 1.07 |
| AGCACCGTCC | 1.59 |
| GTATTTAAAC | 0.99 |
| TGCTGAAGTG | 1.06 |
| TCCACAGGTT | 1.83 |
| CCGTAGAGCA | 1.55 |
| TATTGTGATG | 0.972 |
| TTAGCAAGAT | 3.18 |
| AGTGCGATAT | 1.23 |
| ATAACAGAAA | 1.06 |
| TAGATAGTTA | 1.08 |
| TTGCTTTCAG | 0.948 |
| CTTCGGAGGC | 1.31 |
| ATCGCCGGAC | 0.978 |
| GGAAGCTAGA | 0.982 |
| TATAATCACT | 1.01 |
| ATGTGAGCAT | 1.02 |
| TTAAAATAAT | 1.01 |

| Sequence | switch fluorescence ratio |
| --- | --- |
| CGTTATCCAG | 0.989 |
| ACGCCTCAGG | 2.01 |
| CAGCGTGAAT | 1 |
| GAGTGTGGAA | 1.06 |
| TGAGGCCATG | 0.985 |
| ATTCAATGTT | 1.01 |
| GTGGGTCCTC | 1.05 |
| TCAAGGCCTT | 1.01 |
| CATAGTGACG | 1.06 |
| CATAGGACTA | 1.02 |
| ATTAGTGGAC | 1.02 |
| GTGCAGCCAT | 0.968 |
| TGAAGGTGGG | 0.936 |
| TCTTTGCATT | 1 |
| GGGGAGATAA | 0.989 |
| TACGGTGAG | 1.02 |
| GACGAGGAG | 1.02 |
| TTACGAGTCA | 1.04 |
| CAAATAGCCG | 1.14 |
| ACCCATAGGT | 0.987 |
| GTTCAATACT | 2.06 |
| TTACGGGGCT | 1.07 |
| TACATGGGAT | 1 |
| TCAAGATCAG | 1.01 |
| ATCAAGGATT | 0.962 |
| CTCATACAGG | 1.5 |

| Sequence | switch fluorescence ratio |
| --- | --- |
| GTCAGTAAGA | 1.17 |
| GGCTGTGTCG | 0.952 |
| TTATTTCGGA | 1.09 |
| TGACCCAGTG | 1.31 |
| ATTATACCAG | 1.02 |
| GTAGGGGTAG | 0.979 |
| GCAGCATATG | 1.22 |
| GGAATTTCG | 0.98 |
| ATTGATCGTT | 0.921 |
| CTGTAGGTT | 0.971 |
| GCGTTGTTAA | 1.09 |
| TTTAAAGTCG | 0.99 |
| ACATTGGACG | 1 |
| AATCATATGC | 1.02 |
| TGCGGTATGC | 1.04 |
| TGGAAAACGG | 1.01 |
| CGATTCGTT | 1 |
| GATGGCGTGT | 1.01 |
| AGGTTGGGCT | 0.974 |
| CTCCCAGTCG | 1.33 |
| CCAGCGTGTC | 1.13 |
| CATCGTACGG | 1.01 |
| AGTCTTTGCT | 1.02 |
| TTGAAAGGC | 0.975 |
| GGATGAGTGG | 0.993 |
| GGCCAGGAC | 1.39 |

| Sequence | switch fluorescence ratio |
| --- | --- |
| CGCCGGATTA | 0.976 |
| TGGCTTTCCC | 1.03 |
| ACTACGAATC | 2.2 |
| GAAGGCGGGC | 0.943 |
| CATTCATTGT | 0.982 |
| TGGTTGTAGC | 1 |
| AAACGGGCTT | 0.973 |
| GAATCTGTTG | 0.981 |
| CCGGGGGTGT | 1.12 |
| TACACTGCCA | 1.16 |
| TTCTGCGATA | 1.89 |
| CAAGTGAGCG | 0.962 |
| TTACGGATA | 1.02 |
| GAAGGTCAGG | 0.958 |
| TGCTTTGGCG | 1.03 |
| CGTTGGAGGA | 1.04 |
| CTAGGGACGA | 1.04 |
| TGGAGCTTGT | 0.936 |
| CTAACTATTT | 1.05 |

— the supplement of paper PMC10126150
